The supplement of paper PMC10369915
Some of the results follow. No stated cut-off is given here; in the data, active = 3.2 or more and inactive = the rest. Most of these values are background signal.

Key:
Experiment in all cases: enrichment score (SH2-bound / input frequency) (ratio); bacterial display of known human phosphotyrosine sites (pTyr-Var adds point mutants) read by sequencing; higher = stronger binding; tyrosines were phosphorylated by kinases first
Conditions in all cases: peptide library: pTyr-Var
[1] = molecular target: SHP2 C-SH2 domain E139D
[2] = molecular target: SHP2 C-SH2 domain wild-type
[3] = molecular target: SHP2 N-SH2 domain L43F
[4] = molecular target: SHP2 N-SH2 domain T42A
[5] = molecular target: SHP2 N-SH2 domain T52S
[6] = molecular target: SHP2 N-SH2 domain wild-type

Measured: enrichment score
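Further: displayed peptides selected on beads carrying the immobilized SH2 domain, with library peptides lacking any tyrosine serving as negative controls.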

SRVNKYSTAFG [GJB3_Y16_G12R]
inactive: [1] 1.08 | [2] 1.02 | [3] 0.893 | [4] 0.943 | [5] 0.978 | [6] 1.18

LTQRTYMSENA [GPAA1_Y49]
inactive: [1] 0.857 | [2] 0.768 | [3] 0.668 | [4] 0.782 | [5] 0.791 | [6] 0.71

DVLVEYQGEGR [GNS_Y416]
inactive: [1] 0.716 | [2] 0.715 | [3] 0.715 | [4] 0.599 | [5] 0.758 | [6] 0.776

SGSIHYSHVPR [GLB1_Y57_R59H]
inactive: [1] 1.07 | [2] 1.27 | [3] 1.11 | [4] 0.986 | [5] 1.04 | [6] 1.1

AKNKDYMSIIR [GNE_Y197]
inactive: [1] 0.896 | [2] 0.786 | [3] 0.799 | [4] 0.572 | [5] 0.777 | [6] 1.05

LPKVSYVKAID [GLRA1_Y307]
inactive: [1] 0.941 | [2] 0.792 | [3] 0.904 | [4] 0.864 | [5] 0.863 | [6] 0.988

MSPPGYKLVTG [GJA1_Y286]
inactive: [1] 0.983 | [2] 0.7 | [3] 0.793 | [4] 0.662 | [5] 0.663 | [6] 0.759

DVLVEYQEEGR [GNS_Y416_G418E]
inactive: [1] 0.618 | [2] 0.498 | [3] 0.588 | [4] 0.562 | [5] 0.548 | [6] 0.73

LTQRTYMSENN [GPAA1_Y49_A54N]
inactive: [1] 1.25 | [2] 0.831 | [3] 0.742 | [4] 0.982 | [5] 1.02 | [6] 0.804

MGHVNYGAFIN [GLB1_Y485_R482H_YF]
inactive: [1] 0.835 | [2] 0.744 | [3] 0.781 | [4] 0.861 | [5] 0.762 | [6] 0.841

RLKAKYAAATG [GLI3_Y933]
inactive: [1] 0.448 | [2] 0.274 | [3] 0.453 | [4] 0.583 | [5] 0.461 | [6] 0.5

SSDPDYRAAVD [GLB1_Y154_L155R]
inactive: [1] 0.47 | [2] 0.429 | [3] 0.38 | [4] 0.379 | [5] 0.383 | [6] 0.473

EPSVPYRGTVF [GLI3_Y104]
inactive: [1] 0.608 | [2] 0.532 | [3] 0.682 | [4] 0.546 | [5] 0.634 | [6] 0.636

SVQVDYMKTIL [GLYATL2_Y127]
inactive: [1] 0.996 | [2] 0.782 | [3] 0.915 | [4] 1.19 | [5] 1.02 | [6] 0.908

IMWDSYTTNKV [GNB3_Y85_V81M]
inactive: [1] 1.72 | [2] 1.36 | [3] 1.28 | [4] 1.31 | [5] 1.48 | [6] 1.72

VTRANYFIRDE [GNAS_Y339_K338N]
inactive: [1] 0.843 | [2] 0.923 | [3] 0.994 | [4] 0.705 | [5] 0.639 | [6] 1.09

SGSIHYSCVPR [GLB1_Y57_R59C]
inactive: [1] 0.624 | [2] 0.866 | [3] 0.576 | [4] 0.585 | [5] 0.657 | [6] 1.07

VNFDFYTVNLG [GFPT1_Y367_D366Y_YF]
inactive: [1] 1.81 | [2] 1.71 | [3] 1.67 | [4] 1.98 | [5] 1.87 | [6] 1.8

HRFAAYFQQGD [GPI_Y351]
inactive: [1] 1.92 | [2] 1.74 | [3] 2.1 | [4] 1.61 | [5] 1.56 | [6] 1.85

KLQQWYREPRS [GPI_Y17_H20P]
inactive: [1] 0.471 | [2] 0.519 | [3] 0.486 | [4] 0.339 | [5] 0.609 | [6] 0.478

SGSIHYSRVPR [GLB1_Y57]
inactive: [1] 0.514 | [2] 0.409 | [3] 0.386 | [4] 0.365 | [5] 0.411 | [6] 0.31

EIHTQYEAMAS [GFAP_Y242_R239H]
inactive: [1] 0.685 | [2] 0.787 | [3] 0.429 | [4] 0.533 | [5] 0.7 | [6] 0.69

MGHVNYGAYIN [GLB1_Y485_R482H]
inactive: [1] 1.17 | [2] 1.07 | [3] 1.07 | [4] 1.47 | [5] 0.999 | [6] 0.891

GKSDPYHATSG [GJA1_Y247]
inactive: [1] 0.467 | [2] 0.497 | [3] 0.537 | [4] 0.605 | [5] 0.442 | [6] 0.501

VNFDDYTVNLG [GFPT1_Y367]
inactive: [1] 0.849 | [2] 0.823 | [3] 0.973 | [4] 0.74 | [5] 1.09 | [6] 1.16

FSGLAYTMERS [GLUD1_Y512_H507Y_YF]
inactive: [1] 1.04 | [2] 0.991 | [3] 0.922 | [4] 0.918 | [5] 0.78 | [6] 1.01

LPKVSCVKAID [GLRA1_Y307_Y307C]
inactive: [1] 1.99 | [2] 1.15 | [3] 1.38 | [4] 1.4 | [5] 1.49 | [6] 1.05

IIWDSYTTNKV [GNB1_Y85]
inactive: [1] 1.18 | [2] 1.45 | [3] 1.16 | [4] 1.4 | [5] 1.3 | [6] 1.2

APSGNYVACGG [GNB1_Y111]
inactive: [1] 0.52 | [2] 0.714 | [3] 0.669 | [4] 0.577 | [5] 0.607 | [6] 0.742

MGRVKYGAFIN [GLB1_Y485_N484K_YF]
inactive: [1] 2.19 | [2] 2.02 | [3] 2.32 | [4] 1.91 | [5] 2 | [6] 2

GKSDPYHATTG [GJA1_Y247_S251T]
inactive: [1] 0.426 | [2] 0.572 | [3] 0.41 | [4] 0.467 | [5] 0.41 | [6] 0.55

MGRVNYGAYIN [GLB1_Y485]
inactive: [1] 1.19 | [2] 1.06 | [3] 0.993 | [4] 1.36 | [5] 1.19 | [6] 1.03

NDQPDYDSVAS [GIT2_Y392]
inactive: [1] 0.506 | [2] 0.472 | [3] 0.419 | [4] 0.349 | [5] 0.476 | [6] 0.492

KFRREYILSLE [GPC3_Y299_W296R_YF]
inactive: [1] 0.576 | [2] 0.398 | [3] 0.324 | [4] 0.55 | [5] 0.476 | [6] 0.393

KYRREYILSLE [GPC3_Y299_W296R]
inactive: [1] 0.392 | [2] 0.275 | [3] 0.35 | [4] 0.302 | [5] 0.36 | [6] 0.364

SSLEDYVRETN [GIMAP6_Y176_G171S]
inactive: [1] 0.629 | [2] 0.616 | [3] 0.724 | [4] 0.528 | [5] 0.575 | [6] 0.732

HSGLAYTMERS [GLUD1_Y512]
inactive: [1] 0.843 | [2] 0.837 | [3] 0.91 | [4] 0.771 | [5] 0.763 | [6] 0.909
